# Measurements: the supplement of paper PMC8728848
# The full list was thinned out, with the strongest signals kept by preference.
# Experiments:
# Experiment in all cases: glycan array binding signal (z-score within array); higher = stronger binding
# Details in all cases: glycan notation: IUPAC condensed, linker removed
# [1] = test system: Fuc(a1-2)Gal6S(b1-3)GlcNAc
# How it was run: (§1)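 From the Consortium for Functional Glycomics database, 3228 arrays were curated, keeping only those whose protein sequence was available. Binding is given as a within-array Z-score averaged across arrays sharing a protein sequence and across linkers. Negative Z-scores can be read as non-binding.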
# [2] = test system: Fuc(a1-2)Gal6S(b1-4)GlcNAc
# How it was run: as §1
# [3] = test system: Fuc(a1-2)Gal(b1-4)[Fuc(a1-3)]GlcNAc(b1-3)Gal(b1-4)[Fuc(a1-3)]GlcNAc
# How it was run: as §1
# [4] = test system: Fuc(a1-2)Gal(b1-4)[Fuc(a1-3)]GlcNAc(b1-2)Man(a1-3)[Fuc(a1-2)Gal(b1-4)[Fuc(a1-3)]GlcNAc(b1-2)Man(a1-6)]Man(b1-4)GlcNAc(b1-4)GlcNAc
# How it was run: as §1
# [5] = test system: Fuc(a1-2)Gal(b1-4)[Fuc(a1-3)]GlcNAc(b1-3)GalNAc
# How it was run: as §1
# [6] = test system: Fuc(a1-2)Gal(b1-4)[Fuc(a1-3)]GalNAc(b1-3)Gal(b1-4)[Fuc(a1-3)]GlcNAc
# How it was run: as §1
# [7] = test system: Fuc(a1-2)Gal(b1-4)[Fuc(a1-3)]GalNAc(b1-3)Gal(b1-4)[Fuc(a1-3)]GlcNAc(b1-3)Gal(b1-4)[Fuc(a1-3)]GalNAc
# How it was run: as §1
# [8] = test system: Fuc(a1-2)Gal(b1-4)[Fuc(a1-3)]GlcNAc
# How it was run: as §1
# [9] = test system: Fuc(a1-2)Gal6S(b1-3)GlcNAc6S
# How it was run: as §1
# [10] = test system: Fuc(a1-2)Gal(b1-4)[Fuc(a1-3)]GlcNAc(b1-3)Gal(b1-4)[Fuc(a1-3)]GlcNAc(b1-3)Gal(b1-4)[Fuc(a1-3)]GlcNAc
# How it was run: as §1
substance,measurement,setting,value
Thrombomodulin Extracellular (Homo sapiens) (chain not printed),glycan array binding signal (z-score),[1],-0.049
H-Ficolin (Homo sapiens) (chain not printed),glycan array binding signal (z-score),[2],0.103
Meso764 (Homo sapiens) (chain not printed),glycan array binding signal (z-score),[3],0.068
same,glycan array binding signal (z-score),[1],-0.318
NCAM1 (Homo sapiens) (chain not printed),glycan array binding signal (z-score),[4],5.38
same,glycan array binding signal (z-score),[5],8.58
Angiogenin (Homo sapiens) (chain not printed),glycan array binding signal (z-score),[6],-1.06
Serum Amyloid P component (Homo sapiens) (chain not printed),glycan array binding signal (z-score),[7],-0.612
FGF2 (chain not printed),glycan array binding signal (z-score),[5],2.44
same,glycan array binding signal (z-score),[8],-0.305
same,glycan array binding signal (z-score),[9],2.17
Siglec-2 (Homo sapiens) (chain not printed),glycan array binding signal (z-score),[4],1.36
same,glycan array binding signal (z-score),[10],-0.216
L-Ficolin (Homo sapiens) (chain not printed),glycan array binding signal (z-score),[7],-0.716
same,glycan array binding signal (z-score),[8],-0.538
CLEC-2 (Homo sapiens) (chain not printed),glycan array binding signal (z-score),[4],1.87
same,glycan array binding signal (z-score),[2],0.215
